Whole data set: some 110,000 compounds, median “z-score” near -0.1, cut for the highest 2% near 2. Some of the results follow.
biological target: Metabotropic glutamate receptor 8 (Rattus norvegicus) (UniProt P70579); assay: rat mGluR8 modulators via GIRK flux, primary screen, cell-based, thallium flux, HTS (AID 488969); settings: HEK293 rat mGluR8, GIRK (G protein-gated inwardly rectifying potassium channel) thallium flux, FluoZin2; at 10 µM; stronger effect = higher value; submaximal glutamate (EC20) added with thallium
UniProt P70579, sequence (P70579 whole entry, looked up): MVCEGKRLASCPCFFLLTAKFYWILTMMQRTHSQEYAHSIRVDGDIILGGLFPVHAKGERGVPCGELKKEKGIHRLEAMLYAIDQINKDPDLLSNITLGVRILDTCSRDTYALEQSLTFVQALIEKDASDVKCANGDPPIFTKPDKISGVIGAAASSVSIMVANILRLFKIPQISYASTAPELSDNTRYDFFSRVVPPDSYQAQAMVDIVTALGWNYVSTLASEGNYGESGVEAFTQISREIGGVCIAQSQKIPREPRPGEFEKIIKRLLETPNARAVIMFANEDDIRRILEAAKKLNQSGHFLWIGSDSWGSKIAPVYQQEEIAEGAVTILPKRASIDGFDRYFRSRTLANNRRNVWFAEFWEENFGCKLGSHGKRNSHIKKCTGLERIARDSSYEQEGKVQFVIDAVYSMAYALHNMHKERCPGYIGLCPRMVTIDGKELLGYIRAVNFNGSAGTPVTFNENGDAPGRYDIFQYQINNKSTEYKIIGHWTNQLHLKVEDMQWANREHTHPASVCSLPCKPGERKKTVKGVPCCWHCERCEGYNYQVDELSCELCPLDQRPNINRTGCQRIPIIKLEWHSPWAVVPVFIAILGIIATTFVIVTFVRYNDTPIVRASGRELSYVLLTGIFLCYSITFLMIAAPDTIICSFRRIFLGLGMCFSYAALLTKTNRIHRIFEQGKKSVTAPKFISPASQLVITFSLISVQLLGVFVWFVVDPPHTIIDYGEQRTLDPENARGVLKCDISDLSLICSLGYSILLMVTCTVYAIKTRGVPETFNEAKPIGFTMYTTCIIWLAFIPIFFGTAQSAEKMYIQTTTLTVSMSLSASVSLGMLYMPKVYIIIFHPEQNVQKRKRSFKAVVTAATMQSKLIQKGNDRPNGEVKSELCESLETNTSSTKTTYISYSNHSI

Row | Structure (SMILES) | z-score
1 | CN1CCN(/N=C/c2nc(-c3cccc([N+](=O)[O-])c3)n3ccccc23)CC1 | -0.16
2 | O=C(C1CCN(S(=O)(=O)N2CCOCC2)CC1)N1CCc2ccccc21 | -1.37
3 | Cc1cc(C)n(CC(O)COc2ccccc2[N+](=O)[O-])n1 (stereo unspecified) | 0.324
4 | COc1ccc(C2CC3(CC(C)(C)NC(=S)N3)Oc3cc(O)cc(C)c32)cc1 (stereo unspecified) | 0.628
5 | CCOc1cc(C(=O)NCC2CCCO2)cc(OCC)c1OCC (stereo unspecified) | 0.378
6 | CC(C)Nc1nc(NC(C)C)nc(Oc2ccc(OCc3ccccc3)nn2)n1 | -0.799
7 | N#Cc1ccc2ccn(CC(=O)NCc3ccco3)c2c1 | 0.27
8 | COc1ccc(-c2nn(-c3ccccc3)cc2/C=C/C(=O)OCC(=O)Nc2ccc(C#N)cc2)cc1 | -0.478
9 | CCCC1S/C(=N/N=C/c2ccc(OC)cc2)N(Cc2ccc(OC)cc2)C1=O (stereo unspecified) | -0.125
10 | COc1ccccc1NC(=O)CSc1nnc(Cc2cccn2C)n1CCc1ccccc1 | -0.327
11 | COc1cc(C(=O)N2c3ccccc3CC2C)cc(OC)c1OC (stereo unspecified) | 0.256
12 | CCN1C(=O)/C(=C\c2ccc3c(c2)OCO3)C(C(=O)OC)=C1C | -0.35
13 | Cc1nc(CS(=O)(=O)c2ccc(Cl)cc2)cc(Sc2ccc(Cl)cc2)n1 | -1.64
14 | Cc1ccc(NC(=O)CN2CCCN(S(=O)(=O)c3ccc(Br)s3)CC2)cc1 | -0.0863
15 | Cc1cc(C)nc(SCCC(=O)Nc2ccccc2)n1 | -0.0703
16 | COc1ccc(NC2c3ncccc3C(=O)N2Cc2ccccc2)c(OC)c1 (stereo unspecified) | -0.269
17 | OCCN(CCO)c1ncnc2c1oc1ccc(Br)cc12 | 0.0286
18 | CCc1nn(-c2cc(Oc3ccccc3)nc(-c3ccccc3)n2)c(N)c1C#N | -0.209
19 | O=C(N1CCOCC1)N1CCN(CC(O)COc2ccc3ccccc3c2)CC1 (stereo unspecified) | 0.248
20 | Cc1nc2ccccc2n1CCC(=O)Nc1cccc(F)c1 | 0.464
21 | CCOC(=O)N1CCN(c2c(NCCOC)c(=O)c2=O)CC1 | 0.313
22 | CS(=O)(=O)N1CCC(C(=O)NCCc2ccccc2)CC1 | -0.116

Row | Structure (SMILES) | z-score
23 | CCOc1ccc2nc(SCC(=O)N3CCN(C(=O)c4ccco4)CC3)sc2c1 | -0.363
24 | O=C(Cn1cc(C(F)(F)F)cc(Cl)c1=O)Nc1cc(S(=O)(=O)N2CCOCC2)ccc1Cl | 0.197
25 | Cc1ccccc1NS(=O)(=O)c1cc(C(=O)Nc2ccccc2-c2ccccc2)ccc1Cl | -0.372
26 | O=C(CCSc1nc(-c2ccco2)cc(C(F)(F)F)n1)N1CCCc2ccccc21 | -0.374
27 | O=C(/C=C\c1ccc(-c2ccccc2)o1)c1ccccc1 | -0.00488
28 | COc1cc(C(=O)ON=C2C(C)=CC(=O)C=C2C)cc(OC)c1OC | -0.875
29 | O=C(c1ccccc1-c1ccccc1)N1CCN(c2ccccn2)CC1 | -0.0481
30 | c1ccc(COc2ccc(OCCCN3CCCC3)cc2)cc1 | 0.306
31 | CCN1C(=O)CSc2ccc(C(=O)NCCCN3CCOCC3)cc21 | -0.281
32 | COc1ccc(C(=O)O/N=C(\C)c2ccccc2)cc1 | -0.379
33 | O=C(CSc1nc2ccccc2o1)Nc1nc(-c2ccccc2)c(-c2ccccc2)s1 | 0.488
34 | O=C(Cc1cccs1)NCc1cccnc1 | 0.742
35 | COc1ccc(CC(=O)Nc2ccc3c(C)cc(=O)oc3c2)cc1OC | -0.246
36 | CCS(=O)(=O)NCC(c1ccco1)N1CCN(c2ccccc2)CC1 (stereo unspecified) | 0.126
37 | Cc1nnc(SCC(=O)N2c3ccccc3Sc3ccccc32)n1N | -0.267
38 | Cc1nc(NCCCN2CCOCC2)c2oc3ccccc3c2n1 | 0.46
39 | Cc1ccc(-c2nnc(Nc3ccc4c(c3)OCO4)c3ccccc23)cc1S(=O)(=O)NC(C)C | -0.422
40 | CC(C)(C)NC(=O)c1ccc(COc2ccccc2Br)o1 | -0.0751
41 | CS(=O)(=O)N1CCC(C(=O)N2CCc3ccccc3C2)CC1 | 0.171
42 | COc1ccc(CCNC(=O)COC(=O)C23CC4CC(CC(C4)C2)C3)cc1 | -0.22
43 | O=C1CC(c2ccccc2)Cc2nc3nc(C(F)(F)F)nn3cc21 (stereo unspecified) | -0.168
44 | C=C(C)CSC1=C(C#N)C(c2ccsc2)CC(=O)N1 (stereo unspecified) | -0.0994

Row | Structure (SMILES) | z-score
45 | Cn1cnnc1-c1cccc(NS(=O)(=O)c2ccc(N3CCCC3=O)cc2)c1 | 0.152
46 | O=C(COC(=O)c1ccc(-c2ccc([N+](=O)[O-])cc2)o1)NC(=O)NC12CC3CC(CC(C3)C1)C2 | -0.435
47 | Cc1nnc(SCCn2c(N3CCC(C)CC3)nc3c2c(=O)n(C)c(=O)n3C)s1 | 0.292
48 | Cc1ccc(NC(=O)Nc2ccc3c(c2)N(C)C(=O)CS3)nc1 | -0.0618
49 | Cc1ccccc1NC(=O)NCCCN1CCCC1 | -0.529
50 | Cn1c(OCc2cccnc2)nc2c1c(=O)n(Cc1ccccc1)c(=O)n2C | 0.166
51 | CCOC(=O)c1ccc(N(CC(=O)NC2CCCC2)C(=O)CNC(=O)c2ccco2)cc1 | -0.0776
52 | O=C(N=C1c2ccccc2CN1c1cccc(Cl)c1)c1cccnc1 | -0.697
53 | Cc1ccc(/C=C2/SC(=O)N(CC(=O)N3CCOCC3)C2=O)s1 | 0.0203
54 | CC(C)n1c(SCC(=O)Nc2ccccc2N2CCOCC2)nc2c1c(=O)n(C)c(=O)n2C | 0.538
55 | CCOc1ccc(C(=O)N2CCC(C(=O)c3ccc4c(c3)OCCO4)CC2)cc1 | -1.29
56 | COc1ccc(-c2csc(N3CCN(Cc4ccc5c(c4)OCO5)CC3)n2)cc1 | 0.743
57 | CC1=NN(c2ccccc2)C(=O)/C1=C/c1c(O)n(-c2ccc(F)cc2)[nH]c1=O | -0.636
58 | O=[N+]([O-])c1cc2oc3c(c2c(C=NCc2ccncc2)c1O)CCCC3 | -0.349
59 | Cc1ccc(/C=N\Nc2cn[nH]c(=O)c2Cl)cc1 | -0.0559
60 | O=C(Nc1ccc(Br)cc1)C1CCCN1S(=O)(=O)c1cccs1 (stereo unspecified) | -0.34
61 | CCOC(=O)C1=C(O)/C(=C/c2ccc(-c3ccccc3C(=O)O)o2)SC1=Nc1ccc(OC)cc1 | -0.502
62 | Cc1ccc(-c2nc3cc(NS(=O)(=O)c4ccc(C)cc4)ccc3o2)cc1 | 0.00214
63 | CC1CCN(c2ccc(C(=O)Nc3ccc4c(c3)OCO4)cc2[N+](=O)[O-])CC1 | -0.237
64 | CN1CCc2c(sc3c2C(=O)NC(/C=C/c2ccco2)N3)C1 (stereo unspecified) | 0.79
65 | CCOc1cc(NC(=S)NCc2ccco2)c(OCC)cc1NC(=O)CC(C)C | -0.375
66 | CCOc1cc(N2CCOCC2)c(OCC)cc1NC1=NCCCCC1 | 0.251

Row | Structure (SMILES) | z-score
67 | Cc1cc(C)c(C)c(S(=O)(=O)N2CCN(CC(=O)Nc3ccc([N+](=O)[O-])cc3)CC2)c1C | -0.125
68 | COc1cc(/C=C(\C#N)c2nc(-c3cc4ccccc4oc3=O)cs2)ccc1O | -2.33
69 | NC(=O)c1ccc(N2CCCCC2)c(N2C(=O)C3C4C=CC(C4)C3C2=O)c1 (stereo unspecified) | -0.9
70 | CC(C)Cn1c(CN2CCN(c3ccccc3F)CC2)nc2c1c(=O)[nH]c(=O)n2C | -0.316
71 | O=C(NCc1ccc2c(c1)OCO2)C1COc2ccccc2O1 (stereo unspecified) | 0.0341
72 | CON1C(=O)CN(C(C)=O)C1c1ccc(Cl)cc1Cl (stereo unspecified) | -0.162
73 | Cc1noc(C)c1CSc1ncnc2ccccc12 | -0.0473
74 | Brc1ccc(/C=N/Nc2ncnc3c2cnn3Cc2ccccc2)cc1 | -0.22
75 | CCCc1nc2scc(-c3ccc(C)cc3)c2c(=O)n1N | 0.144
76 | Cc1oc2cc3oc(=O)c4c(c3cc2c1C)CCC4 | -0.0605
77 | COC(=O)c1cc(NS(=O)(=O)c2ccc(N3CCOCC3)c(N)c2)cc(C(=O)OC)c1 | -0.407
78 | CCN(CC)CCCN1C(=O)C(O)=C(C(=O)c2cccs2)C1c1ccccn1 (stereo unspecified) | -0.273
79 | Cn1c(=O)c2c(nc(-c3ccccc3)n2C)n(Cc2ccccc2)c1=O | -0.372
80 | Cc1ccc(C(=O)NNC2=NCCC2)cc1 | -0.0578
81 | Cc1ccc(C2Oc3ccccc3C3=C2C(c2cccs2)n2ncnc2N3)cc1 (stereo unspecified) | 0.24
82 | CCC(C)(C(=O)NC1CCCC1)N(Cc1ccco1)C(=O)c1ccc2c(c1)OCO2 (stereo unspecified) | -0.0787
83 | CCOC(=O)N1CCN(C(=O)/C(=C/c2cccc3ccccc23)NC(=O)c2ccc(OC)cc2)CC1 | -0.241
84 | Cc1ccccc1N1C(=O)c2ccccc2N2C(=O)c3ccccc3C12 (stereo unspecified) | -0.175
85 | CN1c2ccccc2-c2nc3ccccc3n2C1c1cccs1 (stereo unspecified) | -0.32
86 | CC(=O)Nc1nc2ccccc2n1CCN1CCOCC1 | 0.363
87 | O=c1cc(-c2ccccc2)nc2n1Cc1ccccc1-2 | -0.59
88 | O=C(COc1ccc(F)cc1)N1CCC(c2ccccc2)C1 (stereo unspecified) | -0.364

Row | Structure (SMILES) | z-score
89 | O=C(CN(Cc1ccccc1Cl)C(=O)c1ccc(CN2CCOCC2)o1)NCC1CCCO1 (stereo unspecified) | -0.0707
90 | Cc1ccc(C)c(N(CC(=O)N/N=C/c2ccc(-c3ccc([N+](=O)[O-])cc3)o2)S(=O)(=O)c2ccccc2)c1 | 1.49
91 | N#CC(Cc1ccc(OC(F)F)cc1)c1nc2ccccc2[nH]1 (stereo unspecified) | 0.023
92 | CCn1c(SCC(=O)N2CCN(c3ccccc3)CC2)nc2c(c1=O)SC(C)C2 (stereo unspecified) | 0.538
93 | Cc1nc2ccccc2n1C1CC(=O)N(N(C)C)C1=O (stereo unspecified) | -0.197
94 | CCOc1cc(C)c(Cl)cc1S(=O)(=O)NC1CC(C)(C)NC(C)(C)C1 | -0.0909
95 | O=C(O)CCCCCNS(=O)(=O)c1cccc2c1C(=O)c1ccccc1C2=O | -0.121
96 | O=C(CSC1=NC(=O)C(Cc2ccccc2)C(=O)N1)NC1CCCCC1 (stereo unspecified) | 0.139
97 | COc1ccc(CCNC2CC(=O)N(CCc3ccccc3)C2=O)cc1 (stereo unspecified) | -0.185
98 | CNC(=O)COC(=O)c1cc(=O)[nH]c2ccccc12 | -0.298
99 | Cc1cc(/C=C(\C#N)C(=O)Nc2ccccc2)c(C)n1-c1ccc2c(c1)OCO2 | -0.335
100 | O=C(Nc1ccccc1C(F)(F)F)c1ccc(CN2CCC(Cc3ccccc3)CC2)cc1 | -0.134
101 | CCN1C(=O)/C(=C/c2cnn(CC)c2C)SC1=S | -0.201
102 | O=C(Nc1ccccc1)c1cccnc1Nc1ccccc1 | 0.425
103 | CCOC(=O)c1cc2c(=O)n3cccc(C)c3nc2n(CCCOC)c1=NC(=O)c1cccnc1 | -0.804
104 | Cc1nn(CC(=O)Nc2ccc3c(c2)nc(CN2CCCC2)n3C)c(=O)c2ccccc12 | -0.267
105 | COc1ccccc1N1CCN(C(=O)CCc2ccc(S(=O)(=O)NCC(C)C)cc2)CC1 | -0.645
106 | O=C(NC1CCCCC1)n1c(=O)oc2ccc(Cl)cc21 | 0.281
